Common to all, as to assay: Primary Screen for Target Class Profiling of Small Molecule Inhibitors of Methyltransferases
The target in assay [1] is Glycine N-methyltransferase (Homo sapiens) (UniProt Q14749). The note with it: purified enzyme, MTase-Glo SAH luminescence; measured here: GNMT inhibition; at 40 µM; stronger effect = lower value. A digest of the protocol:
(§1)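 Each enzyme was assayed with SAM and its substrate. SAH formation detected by MTase-Glo luminescence; single-point 40 uM screen[…].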

The target of assay [2] is Guanidinoacetate N-methyltransferase (Homo sapiens) (UniProt Q14353). The note with it: purified enzyme, MTase-Glo SAH luminescence; measured here: GAMT inhibition; at 40 µM; stronger effect = lower value. A digest of the protocol: as §1
Assay [3] has as its target Histamine N-methyltransferase (Homo sapiens) (UniProt P50135). The note with it: purified enzyme, MTase-Glo SAH luminescence; measured here: HNMT inhibition; at 40 µM; stronger effect = lower value. A digest of the protocol:
as §1

The target of assay [4] is Nicotinamide N-methyltransferase (Homo sapiens) (UniProt P40261). The note with it: purified enzyme, MTase-Glo SAH luminescence; measured here: NNMT inhibition; at 40 µM; stronger effect = lower value. The procedure, abridged: as §1
Assay [5] addresses Phenylethanolamine N-methyltransferase (Homo sapiens) (UniProt P11086). The note with it: purified enzyme, MTase-Glo SAH luminescence; measured here: PNMT inhibition; at 40 µM; stronger effect = lower value. The procedure, abridged: as §1

The structures appear in SMILES notation. Where “and” joins values, the source holds several entries; their conditions need not be identical. Equal values may be shown once. The list shows a part of the results. The main result of the screen is listed elsewhere. These columns were measured beside it and carry no call.
% is scaled to controls: 0 for no effect and ±100 for the full control effect.

Turning to `CCN1CCN(CCNC(=O)c2cc3n(n2)CC(C)(C(=O)NC2CCCCCC2)N(C)C3=O)CC1` (stereo not given), the activity change, negative = inhibition was 6.33% in assay [1]; -1.19% in assay [2]; -6.55% in assay [3]; 6.52% in assay [4]; -0.208% in assay [5].
The like results for `NC(=O)c1cc2c(nc1CCC1COc3ccccc3O1)CCC2` (stereo not given) were, in that order, -3.34%, -0.861%, -13.3%, -5.63% and -3.48%.
The like results for `COc1ccccc1CCNC(=O)Cn1ccc2cc(S(=O)(=O)N3CCCC3)ccc21` were, in that order, -2.18%, 3.85%, -7.11%, -7.38% and -1.12%.
The like results for `CC(CO[C@@H]1O[C@H](COC(=O)/C=C/c2ccc(O)c(O)c2)[C@@H](O)[C@H](O)[C@H]1O)C1(O)COC(=O)C1` (stereo not given in full) were, in that order, -1.75%, -9.01%, 3.58%, -13.5% and -2.87%.
For the molecule `CC(C)Cn1c(=O)c2ccc(C(=O)NC(C)C)cc2n2c(=O)n(CC(=O)Nc3cccc(Cl)c3)nc12`, the activity change, negative = inhibition in assay [1] is -2.6%; in assay [2] it was 0.678%; in assay [3] it was -3.6%; in assay [4] it was -8.34%; in assay [5] it was -5.6%.
For the molecule `Cn1ncnc1[C@H]1c2n[nH]c(=O)c3cc(F)cc(c23)N[C@@H]1c1ccc(F)cc1`, the activity change, negative = inhibition is -5.38% and -4.32% in assay [1]; -8.08% in assay [2]; -11.7% and 2.62% in assay [3]; -6.79% and -20.1% in assay [4]; 10.7% and -14.6% in assay [5].
As for `COc1ccc(C(O)C(C)OC2OC(CO)C(O)C(O)C2O)cc1` (stereo not given), the activity change, negative = inhibition in assay [1] was 0%; in assay [2], 7.72%; in assay [3] it was 9.86%; in assay [4], -3.13%; in assay [5], 5.11%.
Taken in the same sequence, the figures for `CCc1cc2c(cc3n2CC(C)(C(=O)NC2CCC(C)CC2)N(Cc2ccccc2F)C3=O)s1` (stereo not given) were -5.58%, 3.31%, -3.74%, -3.43% and -4.47%.
Taken in the same sequence, the figures for `C[C@@]12C(=O)N(c3ccc(C(=O)Nc4cccc5cccnc45)cc3)C(=O)[C@@H]1[C@@H]1C=C[C@H]2C1` were -1.01%, 6.27%, 5.11%, -9.7% and -0.874%.
The like results for `O=C(NC1CCN(c2cc(N3CCOCC3)cnn2)C1)C1CC1` (stereo not given) were, in that order, -7.78%, -5.99%, -5.38%, -5.86% and -3.77%.
For the molecule `COc1ccc(C(=O)N2C(C(=O)N3CCCC3)COC23CCN(C(=O)C2CCC2)CC3)cc1` (stereo not given), the activity change, negative = inhibition in assay [1] was -4.61%; in assay [2], -5.9%; in assay [3], -3.38%; in assay [4], -6.89%; in assay [5] it was -2.53%.
With `Cc1cnc(Nc2ccc(OCCN3CCCC3)cc2)nc1Nc1cccc(S(=O)(=O)NC(C)(C)C)c1`, the activity change, negative = inhibition in assay [1] was -22.3% and -17.5%; in assay [2], 9.26%; in assay [3], -52.2% and -44.2%; in assay [4], -34% and -24.3%; in assay [5], -5.52% and 24.7%.
`CC(C)CCn1c(=O)c2ccccc2n2c(SCc3ccccc3F)nnc12`: the activity change, negative = inhibition is -5.51% in assay [1]; 0% in assay [2]; 7.88% in assay [3]; -14.2% in assay [4]; 3.2% in assay [5].
The like results for `COc1ccccc1CNC(=O)C1(C)Cn2c(cc3ccccc32)C(=O)N1C1CC1` (stereo not given) were, in that order, 3.27%, 0.013%, 2.74%, 8.76% and -0.108%.
The like results for `Cc1c2cc(c(C(=O)O)c1C)OC1OC(C(O)C(O)C1O)C(O)C(O)C1OC(O2)C(O)C(O)C1O` (stereo not given) were, in that order, -0.511%, -16.6%, -0.914%, -32% and -0.995%.
Taken in the same sequence, the figures for `CCn1c(CO)nnc1C1CC(NC(=O)c2nn(C)c(C)c2Cl)C1` (stereo not given) were -1.25%, -2.47%, -0.161%, -4.48% and 0.189%.
Consider `CC(C)c1ccc(CNC(=O)c2ccc3c(=O)nc4c(-c5cccc(F)c5)n[nH]n4c3c2)cc1`, for which the activity change, negative = inhibition was -3.86% in assay [1]; -1.49% in assay [2]; 1.33% in assay [3]; -3.89% in assay [4]; -3.65% in assay [5].
The like results for `O=C(CCn1ccc2cc(S(=O)(=O)N3CCCC3)ccc21)NCc1ccccc1F` were, in that order, 4.21%, 0%, 5%, 4.38% and 3.51%.
The like results for `COc1ccccc1CNC(=O)C1(C)Cn2nc(-c3ccccc3)cc2C(=O)N1c1cccc(Cl)c1` (stereo not given) were, in that order, 2.9%, 1.59%, 7.3%, 6.19% and 1.49%.
Taken in the same sequence, the figures for `CC(=O)Nc1ccc(Nc2nc3c(S(=O)(=O)c4ccc(Cl)cc4)nnn3c3ccccc23)cc1` were -10.7%, -0.086%, -2.94%, -9.96% and -8.35%.
With `COc1cccc(CN2CCCC3(CCN(c4cc(C)nc(N)n4)C3)C2)c1OC` (stereo not given), the activity change, negative = inhibition is -9.36% in assay [1]; -15.3% in assay [2]; -55.7% in assay [3]; -12.3% in assay [4]; -4.15% in assay [5].
Taken in the same sequence, the figures for `Cc1ccc(CSc2nnc3n(C)c(=O)c4ccc(C(=O)NC5CCCC5)cc4n23)cc1` were -3%, 0%, 9.89%, 5.95% and 5.07%.
The like results for `COC(=O)c1ccc2c(c1)nc1n2[C@@H](CNC(=O)CC(C)(C)C)COC1` were, in that order, -5.32%, -3.3%, -2.85%, -13.4% and -21.8%.
Taken in the same sequence, the figures for `COc1ccc(CCc2nc3c(C)c(-c4c(C)noc4C)c(C)cc3n2CCN2CCOCC2)cc1` were -18.5%, -10.8%, -3.79%, -62% and -7.37%.
Take `Cc1cc2c(cc1S(=O)(=O)NCc1ccccc1)n(C)c(=O)n2C`: the activity change, negative = inhibition in assay [1] is -3.59%; in assay [2], 2.9%; in assay [3], -7.35%; in assay [4], -10.3%; in assay [5] it was -4.37%.
As to `O=C(O)CC(CCc1ccccc1)OC1OC(CO)C(O)C(O)C1O` (stereo not given), the activity change, negative = inhibition in assay [1] was 2.58%; in assay [2], 1.79%; in assay [3] it was 8.48%; in assay [4] it was -7.54%; in assay [5], 2.46%.
Regarding `Cc1ccc(CSc2nnc3n(CC(C)C)c(=O)c4ccc(C(=O)NC(C)C)cc4n23)cc1`, the activity change, negative = inhibition was -1.14% in assay [1]; -4.54% in assay [2]; 10.6% in assay [3]; -3.79% in assay [4]; 0.557% in assay [5].
The like results for `COc1ccc(OC)c(-c2nnc3n(Cc4ccc(F)cc4)c(=O)c4ccccc4n23)c1` were, in that order, -6.94%, 4.64%, -2.41%, 0.215% and -2.9%.
Taken in the same sequence, the figures for `O=C(O)[C@H](Cc1ccccc1)Oc1ccc(-c2ccccc2)cc1` were -17.8%, -5.08%, 10.1%, -23.5% and -0.922%.

Source of the values: PubChem BioAssay AID1745853 (National Center for Advancing Translational Sciences (NCATS), 2022).
